# Source: PubChem BioAssay AID686978 (National Center for Advancing Translational Sciences (NCATS), 2013)
# Several values for one entry are separate records, joined by “and”; a condition that tells them apart may be missing. Identical values can stand only once. Out of some 420,000 compounds screened, about 64,000 (15%) were called active. This list was built around the results that the source calls inconclusive (neither active nor inactive); the mix of calls is not that of the screen. Calls come from the whole dose curve; as a rule, active = well fitted inhibition curve with a large enough effect; inconclusive = small, poorly fitted or top-dose-only effect; inactive = flat fitted curve, though single readings scatter. Potencies of inconclusive entries are left out as doubtful fits.
# Experiment: qHTS for Inhibitors of human tyrosyl-DNA phosphodiesterase 1 (TDP1): qHTS in cells in absence of CPT; note: nearly all actives have a fitted effect of over 55% in size
# Details: DT40 Tdp1-/- hTDP1 cells, no CPT, ATP luminescence, 48 h; activity change, negative = growth inhibition: at 46.2 µM (top of the series) unless noted
# In short: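 Chicken DT40 Tdp1-/- cells complemented with human TDP1, screened without camptothecin (DMSO vehicle only), 400 cells/well. Compounds pin-transferred, cells incubated at 37 °C for at least 48 hr. Growth read as ATP-dependent luminescence (CellTiter-Glo, 30 min at RT).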
# % is set by controls: 0 for no effect and ±100 for the full control effect; potency is the fitted concentration of half-maximal effect; tags give direction and shape of the fitted curve.
SMILES,Potency,"activity change, negative = growth inhibition"
COc1ccc(N2CC(=O)N(c3ccccc3)C2=S)cc1,"inconclusive [inhibitor, single point]",
CC(C)C[C@@H](CN1CCC[C@@H]1CN1C(=S)NC[C@@H]1Cc1ccccc1)N1C[C@H](Cc2ccc(O)cc2)N(CC2CCCCCC2)C1=S,active: 18.4 µM,
CCN(CC)c1ccc(NC(=O)C2CCCN(S(=O)(=O)c3ccc4c(c3)oc(=O)n4C)C2)c(C)c1 (configuration not stated),active: 10.3 µM,
O=C(Nc1ccccc1Cl)c1cc(C2CCCN(C(=O)CCc3ccccc3)C2)on1 (configuration not stated),"inconclusive [inhibitor, full curve, poor fit]",
Cc1ccc(OCc2cn3cccnc3n2)cc1,,inactive: -3.78%
CCCCN(CCCC)S(=O)(=O)c1ccc(NC(=O)c2ccc([N+](=O)[O-])cc2Cl)cc1,active: 20.6 µM,
CCOC(=O)C1=C(C)N(Cc2ccccc2)C(=O)NC1c1ccccc1OS(=O)(=O)c1ccccc1[N+](=O)[O-] (configuration not stated),active: 9.2 µM,
O=C(COc1ccc2ccc(=O)oc2c1)Nc1nccs1,,inactive: -23.1%
CC(=O)N1CCc2cc(C(=O)CN3CCC(C)CC3)ccc21,,inactive: -2.16%
CN1CCN(C(=O)CCCOc2ccc(Cl)cc2Cl)CC1,,inactive: -23.8%
Cc1ccc(NC(=O)C2CCCN(S(=O)(=O)c3ccc(C)cc3)C2)cc1 (configuration not stated),active: 16.4 µM,
COCCn1c(SCc2ccc(C(=O)OC)o2)nnc1-c1c[nH]c2ccccc12,"inconclusive [inhibitor, single point]",
C=CCN1C(=O)/C(=C2/Sc3ccc(OC)cc3N2C)SC1=NCc1ccccc1,,inconclusive: -37.6% [inhibitor]
COc1ccccc1CSc1nc2n(n1)C(c1ccccc1)C(C(=O)Nc1ccc(C)cc1)=C(C)N2 (configuration not stated),active: 23.1 µM,
Cc1cn(-c2cc(C(=O)Nc3ccc(C)c(NC(=O)N4CCNC4=O)c3)cc(C(F)(F)F)c2)cn1,"inconclusive [inhibitor, full curve]",
O=C1/C(=C\c2ccc(O)cc2)SC(=S)N1Cc1ccccc1,"inconclusive [inhibitor, single point]",
O=C(Cn1c2c(sc1=O)C1c3ccccc3OCC1CS2)Nc1ccc(Cl)cc1 (configuration not stated),"inconclusive [inhibitor, single point]",
Cc1cc(C(=O)N2CCC2(C)C(=O)NS(=O)(=O)c2ccc(Cl)cc2)nn1C (configuration not stated),,inactive: -4.73%
COc1ccccc1C(=O)n1nc(C)cc1C,,inactive: -6.42%
Clc1ccc(-c2noc(CSc3nnc(-c4ccncc4)n3-c3ccccc3)n2)cc1,"inconclusive [inhibitor, single point]",
O=S1(=O)CCC(NC(=S)SCCOc2ccccc2)C1 (configuration not stated),active: 10.3 µM,
COc1ccccc1-c1ncnn1-c1sc2c(c1C#N)CCCCC2,,inconclusive: -31.2% [inhibitor]
Cc1noc(C)c1S(=O)(=O)N1CCC(C(=O)N2CCN(c3ccc(F)cc3)CC2)CC1,"inconclusive [inhibitor, partial curve]",
CCOc1cc(C(=O)Nc2c(C)ccc3nsnc23)cc(OCC)c1OCC,,inactive: -22.1%

SMILES,Potency,"activity change, negative = growth inhibition"
COc1cc(NS(=O)(=O)c2ccc3c(c2)OCC(C(=O)N2CCCC2)O3)cc(OC)c1 (configuration not stated),active: 20.6 µM,
COc1ccccc1C(CNC(=O)CNC(=O)c1ccc(Cl)c(Cl)c1)N1CCCC1 (configuration not stated),active: 16.4 µM,
Cc1c(Cl)cccc1NC(=O)c1cc(C2CC2)on1,"inconclusive [inhibitor, single point]",
O=C(Nc1nccs1)c1cc(S(=O)(=O)N2CCCCC2)ccc1Cl,"inconclusive [inhibitor, single point]",
O=C(c1cccc(C(=O)N2CCN(Cc3ccccc3)CC2)c1)N1CCN(Cc2ccccc2)CC1,"inconclusive [inhibitor, single point]",
COC(=O)[C@H](CCSC)NC(=O)Cn1cnc2c(SC)nc(N)nc21,,inactive: -11.5%
OC(COc1ccc(CN2CCCCO2)cc1)CN1CCCCC1 (configuration not stated),,inactive: -2%
COCCN(C(=O)COC(=O)c1cnc(C)cn1)c1c(N)n(Cc2ccccc2)c(=O)[nH]c1=O,,inactive: 3.85%
CC(=O)C1=CN(Cc2ccccc2)CCC1=O,,inactive: -8.3%
Cc1ccc(OCc2cc(C(=O)N3CCCC(C)C3)no2)cn1 (configuration not stated),active: 20.6 µM,
COc1ccc(S(=O)(=O)N2CCC(C(=O)NCCC(=O)Nc3cccc(Cl)c3)CC2)cc1,"inconclusive [inhibitor, single point]",
NC(=O)c1ccc(NC(=O)c2ccc(COc3ccc(F)cc3)o2)cc1,,inactive: 12.1%
Cc1ccc(S(=O)(=O)c2nnn(-c3cccc(F)c3)c2N)cc1,,inconclusive: -31.3% [inhibitor]
O=[N+]([O-])c1cccc(-c2n[nH]c(=S)n2Cc2ccccc2)c1,"inconclusive [inhibitor, single point]",
CC(=O)Nc1ccc(S(=O)(=O)N(C)c2ccc(OCC(=O)NCCc3ccccc3F)cc2)cc1,"inconclusive [inhibitor, partial curve]",
O=C(CN1CCN(c2ccccc2)CC1)N1CCc2[nH]c3ccccc3c2C1,"inconclusive [inhibitor, partial curve]",
Cc1ccc(NC(=O)Cn2nc(-c3ccc(Cl)cc3)c3ccccc3c2=O)cc1,"inconclusive [inhibitor, single point]",
OCCCCNCc1ccc(OCc2ccc(Cl)cc2Cl)cc1,active: 23.1 µM,
CCOC(=O)c1c(C)[nH]c(C(=O)COC(=O)CNS(=O)(=O)c2ccc(C)cc2)c1C,,inactive: -12.1%
O=C(Nc1ccccc1Cl)c1cc(C2CCCCN2C(=O)c2ccccc2)on1 (configuration not stated),"inconclusive [inhibitor, single point]",
COC(=O)C[C@H]1c2cc(C(F)(F)F)ccc2S(=O)(=O)N1c1ccc(N(C)C)cc1,active: 8.91 µM and active: 10.3 µM,
O=C(NNC(=O)c1ccc(Br)s1)NC1CCCCC1,,inactive: -4.18%
CN(C(=O)c1cccc(NC(=O)Cc2ccc(NC(=O)C3CCCN(C(=O)C4CCC4)C3)cc2)c1)C1CCCCC1 (configuration not stated),"inconclusive [inhibitor, single point]",
